In the supplement of paper PMC11417369:
± gives the standard deviation of the averaged measurements. Some of the results follow.

Tested on: PfAP2-I AP2 domain 3 (GST-tagged)
Test: gcPBM binding intensity (ln(normalized median fluorescence intensity)); higher = stronger DNA binding
Outline: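 The binding buffer was 1× PBS containing 1% milk, 0.2 mg/ml BSA, 0.5% salmon testes DNA and 0.03% Triton X-100. In it, GST-tagged P. falciparum DNA-binding domains expressed in E. coli were applied for 1 h to an Agilent 4 × 180k array of primer-extended double-stranded 36-bp intergenic genomic probes plus negative controls. Binding intensity, read with Alexa488 anti-GST antibody and a 488 nm scan, is the highest Masliner-normalised natural-log median intensity across replicate spots of either probe orientation.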

Row | Sequence | gcPBM binding intensity (ln)
1 | AACCACATACATATAACACACATATACAATCTATAT [CACACA_site1987] | 8.11 ± 0.45
2 | ATATTAACTATCATAACACACACAGTAGACATATTT [CACACA_site6941] | 7.93 ± 0.59
3 | TAAATACATAAATACACACACATATATTATATATAT [CACACA_site4310] | 8.36 ± 0.5
4 | TATCATATATAAAGAGGTACGTAAGAATAGAAAATT [XGTACX_site798] | 8.26 ± 0.78
5 | TTCTTAAAAGGAAAGGTGCAACTTTATCATTTTCTT | 9.62 ± 0.12
6 | ATATATATTATATAAGTGCATAATATTCTTTCTTTT | 10.5 ± 0.25
7 | TTTTTCATTTCTGCATTTATTTATAAATAAATATTT [CACACA_negctrl_site368] | 8.59 ± 0.53
8 | TTCAAATATAAATACACACACATAGCTACAAAATAA [CACACA_site4172] | 7.83 ± 0.49
9 | TATAAGAGAATATATACACACAAAAATATATACAGT [CACACA_site1668] | 7.87 ± 0.64
10 | TACACGCATGGACACACACACACACCCATATATATA [CACACA_site4522] | 8.38 ± 0.87
11 | TATATATTTTGTGTCTGTACACATATTATTAATTCC [XGTACX_site7507] | 7.81 ± 0.099
12 | TTTTTTTATCAATGTTGTACTTTTTTTTTTTTCCAT [XGTACX_site8864] | 7.86 ± 0.59
13 | TTAAAACCAAAACACAGTACATATATATATATATAT [XGTACX_site5668] | 9.6 ± 0.45
14 | AAAATATATTATATATGTACATATTACGTTTTAATT [XGTACX_site2518] | 7.88 ± 0.4
15 | CAATTTTAAGTAATCAATTTTTTTAAAAAACACAAA [CACACA_negctrl_site961] | 7.71 ± 0.27
16 | GCATAATATACTCTTACACACCATTTCTATATACAT [CACACA_site6799] | 8.33 ± 0.68
17 | TTTGTTAATTATAAATGTACATATTATATATATATA [XGTACX_site8870] | 9.16 ± 0.23
18 | TATATATATATGTATACACACATATGTATGTTATGT [CACACA_site4053] | 9.11 ± 0.29
19 | TTGTTTTTAGTTTATACACACCATATTAATATAATG [CACACA_site7452] | 8.26 ± 0.53
20 | ATTTGGCATGGACACACACACACACCGACAGACATA [CACACA_site4491] | 7.95 ± 0.54
21 | TTATATTATGGACACACACACAAAAAAAAAAAAAAA [CACACA_site7744] | 8.14 ± 0.43
22 | AAATTAATTAAATATACACACATATATAAATATATA [CACACA_site391] | 7.46 ± 0.42
23 | ATATATATATAAAGTTGTACATTTTTTATTTTTTCA [XGTACX_site7847] | 9.09 ± 0.16

Row | Sequence | gcPBM binding intensity (ln)
24 | TTGACACGTATATGCACACACCCGTAAGTGTCCATT [CACACA_site2764] | 9.485 ± 0.064
25 | ATATTTTATTATTGTTGTACTTTTTTTTGATTGTTT [XGTACX_site4090] | 7.86 ± 0.46
26 | TTTAATATTTTTCAATGTAGAAAGTTTGTCTGTTAT [CACACA_negctrl_site973] | 7.76 ± 0.35
27 | AGTTATAAACATATGTGTACTTATAAAAACATATAG [XGTACX_site3268] | 7.87 ± 0.47
28 | TCACACATATATTCATGTACATATTAATATTTCCAT [XGTACX_site5387] | 8.3 ± 0.44
29 | TTTTTTATGAACACGTCACACATCATTAAAATGTTT [CACACA_site5934] | 7.74 ± 0.64
30 | TTGATGATATAAAAAAGTACTTATATTATATTATAT [XGTACX_site6492] | 7.79 ± 0.42
31 | TTTTGTAAAAAAAAAAAAAAAGGAAAATTAAAATAA [CACACA_negctrl_site803] | 7.32 ± 0.67
32 | TTTCCTATTTAATATAGTACATAAGAAATAATTTTA [XGTACX_site5952] | 7.48 ± 0.38
33 | CTTGTATTTAAACACACACACACTTTCTTTTTTTAA [CACACA_site5133] | 7.99 ± 0.49
34 | AATATTATAATATAAACACACAAAATTCAATTATAT [CACACA_site3789] | 7.6 ± 0.68
35 | AACGTTCATATTTCCACACACAAAAAATAAATATAA [CACACA_site3344] | 8.21 ± 0.33
36 | TTAATATTAATATATTGTACATATATGCACATATTT [XGTACX_site6569] | 9.1 ± 0.18
37 | AAAAATAAAGGGCGAAAAAAAAAAAAAAAAAAAAAA [GTGCAC_negctrl_site671] | 8.14 ± 0.71
38 | ATTAATAATATTCCTTGTACATGATTTTTCTAAATA [XGTACX_site7099] | 7.9 ± 0.47
39 | TATAAATATAAATACACACACACATCAATACAGATA [CACACA_site5850] | 7.87 ± 0.29
40 | AAAAAAAAAAAAAAAACACACATACACCCCCACCCA [CACACA_site9117] | 9.83 ± 0.085
41 | TATAATAATGCCTTTACATGCAATAATAAAGAAATA [TGCATGCA_site631] | 7.82 ± 0.47
42 | AATGAATTAATAGCTACACACGGTAACATAATAACT [CACACA_site851] | 7.67 ± 0.59
43 | TCTTTTGAACAAATTTGTACGTATATAAAAATATTT [XGTACX_site6547] | 7.88 ± 0.47
44 | TGTGTTAATAGAAAAAGTACATATACATATATATAT [XGTACX_site4951] | 8.98 ± 0.22
45 | TGCACAGACGGACACACACACAACTAAAAAATAATG [CACACA_site5424] | 8.26 ± 0.26
46 | ATATTTCATCTAGCTACACACATATAACAAATTACT [CACACA_site7843] | 8.19 ± 0.54

Row | Sequence | gcPBM binding intensity (ln)
47 | TACATAAAAATATCACGTACATATAATCATATACTA [XGTACX_site3505] | 7.69 ± 0.23
48 | ACCTTTGATATATACACACACATAAAAAAAATATAT [CACACA_site6952] | 8.35 ± 0.38
49 | TTCTTTTTCCAATTTGCACACCACAAAATTATATAT [CACACA_site2909] | 9.94 ± 0.21
50 | TCAAATTATATGAGTGGTACACATGTAATATTTTTA [XGTACX_site6518] | 7.6 ± 0.28
51 | AAAAAACGACCTTACGCACACATTATTCTAGTCTAT [CACACA_site2349] | 8.31 ± 0.62
52 | ATATTTTGTATAATCACACACACTATTATTAAATAG [CACACA_site2612] | 7.79 ± 0.58
53 | TTACATTTTTTATGTTTTTTTATATTGCAAAAAAAT [CACACA_negctrl_site1050] | 8 ± 0.16
54 | ATATATATATATATATGTACTTATTAAGATTAAAAA [XGTACX_site61] | 9.26 ± 0.27
55 | AAAAAAATATATATTACACACATATATACATATATA [CACACA_site3125] | 7.82 ± 0.32
56 | TTAAATATAAAAAGTAGTACATTTATATTTACCATA [XGTACX_site2962] | 7.74 ± 0.16
57 | TTTTTTTTTTAAAAAACACACACCTAAACAAGATAT [CACACA_site875] | 7.96 ± 0.59
58 | ATATATATATATATTTGTACATATATATAATTTTTC [XGTACX_site7460] | 9.49 ± 0.64
59 | AAAATAAAAAAAAAAGGTACACAAAAAGATGGACTG [XGTACX_site2650] | 7.83 ± 0.64
60 | TATAATTGTCTTCACACACACATATATATATATATA [CACACA_site2743] | 9.36 ± 0.35
61 | ATGTTGTCAAAAAAATGTACTTACATAATATTTTCC [XGTACX_site1732] | 7.68 ± 0.52
62 | CGCATACACCAACACACACACACATATATATATATA [CACACA_site635] | 9.53 ± 0.52
63 | TATAAATACTTATATGTACACACATATAGATATATA [CACACA_site8819] | 7.65 ± 0.042
64 | ATCTAATATATATTCTGTACGTAATTAAAACCACAA [XGTACX_site3152] | 8.21 ± 0.39
65 | AGAAGTCTGTAATGATGTACTGGAAAAATATAAATA [XGTACX_site8148] | 7.68 ± 0.63
66 | TAGATCTTATTTACAAGTACATATATACGATTCATT [XGTACX_site7578] | 7.65 ± 0.51
67 | CACCCCCACAGACACACACACACACCCATATATATA [CACACA_site364] | 9.09 ± 0.59
68 | AAGATTCATTGGTTCTGTACAAAATAAACACTATAA [XGTACX_site834] | 7.81 ± 0.45
69 | TTACCAAAAAAATGTAGTACAATATAATATTATTTA [XGTACX_site5750] | 8.12 ± 0.12

Row | Sequence | gcPBM binding intensity (ln)
70 | AATATATATATTTAAGTGCATAATATTGTAATATTA | 10.4 ± 0.38
71 | ATATATTATGAAGACTGTACATTTACATGAAAAAAA [XGTACX_site7203] | 7.83 ± 0.59
72 | ATAAAAATAAAAAGTGTGCACACAAAAATATATATA [GTGCAC_site9931] | 9.96 ± 0.33
73 | TTAATTGACATAAAAAGTACTCATATAGATATGCAC [XGTACX_site6391] | 8.965 ± 0.078
74 | AAAAAGAACAGAAACACACAAATAAAATAAAATTGT [CACACA_site6921] | 7.72 ± 0.61
75 | AAATGTTAATAAAGGTGTACACAAAATAAAAAAAAT [XGTACX_site463] | 8.76 ± 0.57
76 | TAATTTTATTTTATATGTACGCAATACAAATATATA [XGTACX_site8461] | 7.86 ± 0.21
77 | AAATGACATTTCAAAAGTACATATTTAATTAATTAA [XGTACX_site2919] | 7.67 ± 0.45
78 | TTTATATATATAATATGTACACATAATAATAATACA [XGTACX_site4862] | 7.89 ± 0.23
79 | TTTATTTAAAAAGTTTGTACATATATATTATTTTGA [XGTACX_site6040] | 7.55 ± 0.48
80 | CATATATAAATATATACACACATACATACATACATA [CACACA_site5988] | 7.93 ± 0.66
81 | ATATTATAGTTATGAACATGCAAACATTACGAAATA [TGCATGCA_site54] | 7.71 ± 0.72
82 | AAAAAATATTAGACTTATAAAGCATAAAGGATATTA [GTGCAC_negctrl_site588] | 7.57 ± 0.67
83 | AATTTATTATTTTATTGTACGTATTTTTTTTTTTAT [XGTACX_site2298] | 8.1 ± 0.2
84 | ATATTTGCATGTGGTAGTACATAACATTCTTTTACA [XGTACX_site8194] | 8.29 ± 0.57
85 | ATATCTTATAATACGGTGCACTTGACATGAACAACT [GTGCAC_site9987] | 10.7 ± 0.3
86 | CTTCAATTAAAATTCACACATATAAATTAAAATATT [CACACA_site6129] | 7.54 ± 0.39
87 | ATATATAATTAATTTTGTACACATAAAAAAAAAAAT [XGTACX_site6647] | 7.96 ± 0.38
88 | AGAGAGAAAGCTATAACATGCAACAATTTTTTGAAA [TGCATGCA_site514] | 7.62 ± 0.61
89 | AAATAGAGAAATACAAGTACATATCAAACCAATATA [XGTACX_site1192] | 7.64 ± 0.53
